PubChem BioAssay AID1851 (National Center for Advancing Translational Sciences (NCATS), 2009)
This is a selection; strong and weak results do not stand in their true shares. Inconclusive results are not listed. Active and inactive are the calls of the source. Calls follow the shape of the dose curve; as a rule, active = well fitted curve in the direction sought with a large enough effect; inconclusive = small, poorly fitted or top-dose-only effect, or effect the other way; inactive = no such curve, though single readings can be large or run the other way.

molecular target: Cytochrome P450 1A2 (Homo sapiens) (UniProt P05177); assay: Cytochrome panel assay with activity outcomes; details: recombinant CYP, pro-luciferin dealkylation, luminescence, p450-cyp1a2; series mostly up to 57.1 µM
Method: The P450 gene superfamily is involved in the metabolism and clearance of xenobiotics. This assay used various human CYP P450 isozymes to measure the dealkylation of various pro-luciferin substrates to luciferin. The luciferin is then measured by luminescence after the addition of a luciferase detection reagent. Pro-luciferin substrate concentration in the assay was equal to its KM for its CYP P450 isozyme. Inhibitors and some substrates limit the production of luciferin, and decrease measured luminescence.
NCGC Assay Protocol Summary:
1, Reagent, 2 uL, Isozyme and Pro-Luciferin
2, Library compounds, 23 nl, 40 uM to 0.24 nM dilution series
3, Controls, 23 nl, Isozyme specific inhibitor
4, Reagent, 2 uL, NADPH regeneration solution
5, Incubation time, 60 min, Isozyme specific temperature
6, Reagent, 4ul, Detection reagent
7, Incubation time, 20 min, Isozyme specific temperature
8, Detection, 1 sec, ViewLux luminescent read
The luciferase-based P450-GloTM Screening Systems were obtained from Promega (Madison, WI) for CYP 1A2 (V9770), CYP 2C9 (V9790), CYP2 C19 (V9880), CYP 2D6 (V9890), and CYP 3A4 Luciferin-PPXE (V9910) and were adapted for 1,536-well microplates and an automated protocol. […]

UniProt P05177, sequence (P05177 whole entry, looked up): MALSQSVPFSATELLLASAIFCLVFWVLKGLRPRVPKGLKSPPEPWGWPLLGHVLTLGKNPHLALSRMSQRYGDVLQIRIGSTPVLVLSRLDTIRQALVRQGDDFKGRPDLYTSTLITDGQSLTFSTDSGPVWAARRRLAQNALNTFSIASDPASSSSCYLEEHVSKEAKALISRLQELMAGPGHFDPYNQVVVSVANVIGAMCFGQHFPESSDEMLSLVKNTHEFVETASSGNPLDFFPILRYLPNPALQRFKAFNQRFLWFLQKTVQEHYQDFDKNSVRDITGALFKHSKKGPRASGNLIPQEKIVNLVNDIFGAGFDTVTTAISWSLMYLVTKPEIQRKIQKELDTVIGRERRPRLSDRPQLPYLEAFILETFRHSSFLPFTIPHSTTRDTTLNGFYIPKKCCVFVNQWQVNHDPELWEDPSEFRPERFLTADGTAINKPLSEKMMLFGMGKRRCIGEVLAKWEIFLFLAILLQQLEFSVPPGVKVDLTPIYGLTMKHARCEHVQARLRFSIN

SMILES	AC50
Clc1ccc(CS[C@@H](Cn2ccnc2)c2ccc(Cl)cc2Cl)cc1	active: 0.2 µM
CN1[C@@H]2CC[C@H]1CC(OC(=O)[C@@H](O)c1ccccc1)C2 (some centres not stated)	inactive
